Out of some 310,000 compounds screened, about 2,200 (0.71%) showed an effect of 50% or more. The effect is printed as a negative number. This is one part of the list.
Molecular target: human ether-à-go-go-related gene (hERG) potassium channel (human, UniProt Q12809)
Experiment: primary screen, population patch clamp on CHO cells stably expressing hERG

human ether-à-go-go-related gene (hERG) potassium channel, sequence (Q12809 whole entry, looked up): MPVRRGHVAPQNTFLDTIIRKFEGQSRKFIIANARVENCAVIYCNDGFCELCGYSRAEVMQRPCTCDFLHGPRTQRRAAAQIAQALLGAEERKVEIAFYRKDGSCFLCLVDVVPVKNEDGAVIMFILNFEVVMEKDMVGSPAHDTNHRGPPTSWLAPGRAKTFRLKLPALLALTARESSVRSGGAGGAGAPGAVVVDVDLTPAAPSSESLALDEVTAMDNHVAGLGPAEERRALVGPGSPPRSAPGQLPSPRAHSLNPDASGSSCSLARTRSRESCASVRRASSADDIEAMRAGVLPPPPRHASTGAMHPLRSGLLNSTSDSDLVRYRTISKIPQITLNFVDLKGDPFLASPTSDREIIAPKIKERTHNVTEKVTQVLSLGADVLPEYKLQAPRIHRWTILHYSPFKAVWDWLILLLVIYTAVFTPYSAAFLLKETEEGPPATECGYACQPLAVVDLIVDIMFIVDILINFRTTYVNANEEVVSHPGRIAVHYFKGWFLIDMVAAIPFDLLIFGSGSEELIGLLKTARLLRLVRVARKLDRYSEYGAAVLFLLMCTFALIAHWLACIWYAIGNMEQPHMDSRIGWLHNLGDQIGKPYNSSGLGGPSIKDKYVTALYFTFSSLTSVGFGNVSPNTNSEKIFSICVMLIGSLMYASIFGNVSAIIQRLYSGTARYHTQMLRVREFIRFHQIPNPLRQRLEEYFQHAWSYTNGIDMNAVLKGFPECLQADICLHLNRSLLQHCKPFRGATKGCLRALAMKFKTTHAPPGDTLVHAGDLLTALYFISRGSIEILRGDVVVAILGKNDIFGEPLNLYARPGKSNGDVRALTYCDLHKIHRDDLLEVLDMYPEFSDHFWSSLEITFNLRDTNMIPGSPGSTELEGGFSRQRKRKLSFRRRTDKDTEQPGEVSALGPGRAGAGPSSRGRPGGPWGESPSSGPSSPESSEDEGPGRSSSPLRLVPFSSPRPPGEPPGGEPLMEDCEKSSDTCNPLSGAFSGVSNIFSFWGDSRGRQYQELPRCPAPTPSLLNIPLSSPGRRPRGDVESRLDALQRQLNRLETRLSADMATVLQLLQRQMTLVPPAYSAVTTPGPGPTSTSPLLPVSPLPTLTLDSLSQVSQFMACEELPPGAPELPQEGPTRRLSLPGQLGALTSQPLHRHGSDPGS

First: Cc1ccc(O)c(C(=O)c2cnc3c(c2)c(C)nn3C)c1
Second: Cc1ccc(C)c(Cn2c(CO)nc3ccccc32)c1
The “hERG current change (%, negative = inhibition) at 1uM” value of the first is higher: 13% for the first, 0.782% for the second.

First: O=C(NCCc1ccccc1)C1CCN(S(=O)(=O)c2cccc3nsnc23)CC1
Second: COc1ccc(CCNC(=O)C2CCN(C(=O)c3ccc(Br)cc3)CC2)cc1
The “hERG current change (%, negative = inhibition) at 1uM” value of the first is higher: 16.5% for the first, -12.8% for the second.

Going from `COc1ccc(/C=C/C(=O)Nc2ccc(S(=O)(=O)Nc3cc(C)nc(C)n3)cc2)cc1OC` to `COc1ccc(Cc2nn3c(-c4cc(OC)c(OC)c(OC)c4)nnc3s2)cc1`, the “hERG current change (%, negative = inhibition) at 1uM” value rises from -3.27% to 4.17%.

First: Cc1cc(NC(=O)COC(=O)c2ccc(F)c(S(=O)(=O)N3CCOCC3)c2)no1
Second: O=C(Nc1ccccc1C(=O)O)c1cc(S(=O)(=O)N2CCOCC2)cs1
The “hERG current change (%, negative = inhibition) at 1uM” value of the first is higher: -0.873% for the first, -23.8% for the second.

Compared with `Cc1ccn2c(C=O)c(-c3ccc(F)cc3)c(C=O)c2c1`, `COC(=O)c1cccc(N=Cc2c(O)n(Cc3ccc(F)cc3)c(=O)[nH]c2=O)c1` is higher in “hERG current change (%, negative = inhibition) at 1uM” value: 7.2% for the first, 15.3% for the second.

Compared with `CCOC(=O)C1=NNC(C(=O)c2ccc(Cl)cc2)C1c1ccc(OC)cc1` (centres unmarked), `Cc1ccc(Cl)cc1NC(=O)c1ccc(CSc2nnnn2C)cc1` is lower in “hERG current change (%, negative = inhibition) at 1uM” value: 13.2% for the first, 9.74% for the second.

First: Cl.O=C(Nc1ccnc(=O)[nH]1)c1sc2ccccc2c1Cl
Second: COc1ccccc1NC(=O)Cn1c(=O)sc2ccccc21
The “hERG current change (%, negative = inhibition) at 1uM” value of the first is higher: 13% for the first, -4.2% for the second.

Going from `CN(C)CCN(Cc1ccccc1)c1ccnc(N(C)C)c1C#N` to `CCc1ccc(NC(=O)N(CCN(C)C)C(C)c2cccnc2)cc1` (centres unmarked), the “hERG current change (%, negative = inhibition) at 1uM” value rises from -4.98% to 6.09%.

Going from `CCOC(=O)CCc1c(C)c2ccc(OCC)c(C)c2oc1=O` to `CCOc1ccc(CCNC(=O)COC(=O)Cn2nc(C)c([N+](=O)[O-])c2C)cc1OCC`, the “hERG current change (%, negative = inhibition) at 1uM” value rises from -4.06% to 1.91%.

Going from `O=C(CSc1nnc(-c2ccccc2F)o1)N1CCNC1=O` to `O=C(NCCSc1c[nH]c2ccccc12)c1ccc(Br)o1`, the “hERG current change (%, negative = inhibition) at 1uM” value rises from -0.912% to 10.2%.

First: CC1(NC(=O)COc2ccccc2-c2ccccc2)CCS(=O)(=O)C1 (centres unmarked)
Second: CC1(NC(=O)CSc2nnc(-c3ccco3)n2Cc2ccccc2)CCS(=O)(=O)C1 (centres unmarked)
The “hERG current change (%, negative = inhibition) at 1uM” value of the first is lower: 1.53% for the first, 9.18% for the second.

Going from `CCOC(=O)N1CCN(C(=O)CN(c2ccc(OCc3ccccc3)cc2)S(C)(=O)=O)CC1` to `O=C(c1c[nH]c2ccccc12)N1CCN(Cc2ccccc2)CC1`, the “hERG current change (%, negative = inhibition) at 1uM” value rises from -12% to 0.531%.

Compared with `Cc1ccc(-n2c(O)c(C=NCc3ccccn3)c(=O)[nH]c2=S)cc1`, `Cc1ccc(Cl)c2c(N=Nc3ccccc3)c(O)[nH]c12` is lower in “hERG current change (%, negative = inhibition) at 1uM” value: 12.5% for the first, 11% for the second.

First: C=CCn1c(SCC(=O)NCc2cccs2)nnc1C1CCCCC1
Second: C=CCn1c2ccccc2c2nnc(SCC(=O)Nc3cc(C)on3)nc21
The “hERG current change (%, negative = inhibition) at 1uM” value of the first is higher: 11% for the first, 3.22% for the second.

First: COc1cc(/C=N/NC(=O)c2[nH]nc3c2CCc2ccccc2-3)ccc1O
Second: CCOc1ccc(/C=N/NC(=O)c2[nH]ncc2Br)c(O)c1
The “hERG current change (%, negative = inhibition) at 1uM” value of the first is lower: 2.68% for the first, 5.05% for the second.

Going from `O=C(c1cc(COc2c(F)cccc2F)on1)N1CCSCC1` to `O=C(c1cc(-c2ccccc2)on1)N1CCN(c2ccccc2)CC1`, the “hERG current change (%, negative = inhibition) at 1uM” value rises from 9.27% to 13.5%.

Compared with `CC(C)OC(=O)/C(=C/c1cccnc1)NC(=O)c1ccccc1`, `CCC(C)c1ccc(NC(=O)Nc2cccnc2)cc1` (centres unmarked) is lower in “hERG current change (%, negative = inhibition) at 1uM” value: 10.7% for the first, -3.68% for the second.

First: CN(C)C(=O)CSc1nnc(-c2ccncc2)n1Cc1ccco1
Second: Cc1ccc(-c2cc(-c3nnc(SCC(=O)N(C)CCC#N)n3N)c3ccccc3n2)cc1
The “hERG current change (%, negative = inhibition) at 1uM” value of the first is higher: 18.3% for the first, 9.95% for the second.

Compared with `CC1=NN(c2ccc(C)c(C)c2)C(=O)C1C(c1cccc(O)c1)C1C(=O)N(c2ccc(C)c(C)c2)N=C1C` (centres unmarked), `Cc1ccc(C)c(CSC2=NCCN2C(=O)Cc2ccc([N+](=O)[O-])cc2)c1` is lower in “hERG current change (%, negative = inhibition) at 1uM” value: 21.1% for the first, 11.1% for the second.

Going from `O=C(COc1ccccc1)Nc1cc(Cl)ccc1Cl` to `Cc1ccc(C)c(OCC(=O)Nc2ccncc2)c1`, the “hERG current change (%, negative = inhibition) at 1uM” value falls from 20.7% to 10.5%.

Compared with `O=C(CCC1CCCN(C(=O)CCC(F)(F)F)C1)NCc1ccc(F)c(F)c1` (centres unmarked), `O=C(CCc1ccccn1)N1CCCC(N2CCN(c3cccc(C(F)(F)F)c3)CC2)C1` (centres unmarked) is lower in “hERG current change (%, negative = inhibition) at 1uM” value: 8.35% for the first, -16.2% for the second.

First: Cn1ncc([N+](=O)[O-])c1C(=O)Nc1ccc(-c2nc3ccccc3o2)cc1
Second: Cc1ccc(CCC(=O)Nc2ccc(Br)cc2)o1
The “hERG current change (%, negative = inhibition) at 1uM” value of the first is higher: 13.4% for the first, 7.8% for the second.

Going from `Cc1cc(C)n2c(SCc3ccc(Br)cc3)nnc2n1` to `Cc1nnc(SCc2ccc(CSc3nnc(C)c(=O)[nH]3)cc2)[nH]c1=O`, the “hERG current change (%, negative = inhibition) at 1uM” value rises from 2.93% to 12%.

First: COc1ccc(CCN2CCCC(CN(C)Cc3cc(OC)c(OC)c(OC)c3)C2)cc1 (centres unmarked)
Second: CCCCCc1cc(=O)oc2c(C(CCN3CCCC(C)C3)c3cc(OC)c(OC)c(OC)c3)c(OC)cc(OC)c12 (centres unmarked)
The “hERG current change (%, negative = inhibition) at 1uM” value of the first is lower: -0.385% for the first, 14.7% for the second.

First: COC(=O)Cc1cc(=O)n2[nH]cnc2n1
Second: Cc1ccccc1NC(=O)CSc1nc(O)cc(=O)n1C
The “hERG current change (%, negative = inhibition) at 1uM” value of the first is higher: 9.03% for the first, -16.9% for the second.

First: O=S(=O)(NC1CC1)c1ccc(S(=O)(=O)N2CCC3(CC2)OCCO3)cc1
Second: CC1(c2ccccc2)NC(=O)N(CC(=O)Nc2cc(S(=O)(=O)N3CCOCC3)ccc2Cl)C1=O (centres unmarked)
The “hERG current change (%, negative = inhibition) at 1uM” value of the first is higher: 6.95% for the first, 4.96% for the second.

Compared with `COc1ccc(-c2oc3ccc(-c4ccc(OC)nc4)cc3c2-c2ccc(OC)cc2)cc1`, `COc1ccc(CNc2oc(-c3cccc4ccccc34)nc2C#N)cc1` is higher in “hERG current change (%, negative = inhibition) at 1uM” value: 5.17% for the first, 11.3% for the second.

Going from `C/C(=C/C=N/Nc1nc(N2CCCCC2)nc(N2CCCCC2)n1)c1ccccc1` to `Cc1ccccc1-c1ncc(CN2CCN(C3CCCC3)C(CCO)C2)cn1` (centres unmarked), the “hERG current change (%, negative = inhibition) at 1uM” value rises from 5.29% to 7.16%.

First: Cc1cc(=O)[nH]c(N/N=C/c2c[nH]c3ccccc23)n1
Second: CC(=O)N(Cc1cc(=O)[nH]c2ccccc12)c1ccccc1
The “hERG current change (%, negative = inhibition) at 1uM” value of the first is lower: 9.01% for the first, 13.3% for the second.

Going from `Cc1cc(OCCCCOc2ccc(C#N)cc2)ccc1[N+](=O)[O-]` to `O=C(CNC(=O)c1ccco1)OCC(=O)c1ccc([N+](=O)[O-])cc1`, the “hERG current change (%, negative = inhibition) at 1uM” value rises from -10.5% to 14.9%.

First: CCOC(=O)C1CCN(CC(=O)N2C(C)CCCC2C)CC1.O=C(O)C(=O)O (centres unmarked)
Second: CC1CCN(CC(=O)c2ccc3c(c2)OCCO3)CC1.O=C(O)C(=O)O
The “hERG current change (%, negative = inhibition) at 1uM” value of the first is higher: 10.3% for the first, 8.81% for the second.

Going from `O=C(CN1CCOCC1)N1CCN(S(=O)(=O)c2ccccc2)C1c1ccccc1` (centres unmarked) to `CC1c2ccccc2N(NC(=O)Cc2ccccc2)C1C` (centres unmarked), the “hERG current change (%, negative = inhibition) at 1uM” value rises from -12.5% to 8.99%.

First: C#CCOCCOCCOCCNc1nc(N2CCN(C(=O)[C@H](CCCCN)n3cc(C(N)CO)nn3)CC2)nc(N2CCN(C(=O)[C@H](CCCCN)n3cc(C(N)COC(=O)C(F)(F)F)nn3)CC2)n1.Cl (some centres unmarked)
Second: Cc1ccc(CN2CCSc3ccc(C(=O)N4CCN(c5ncccn5)CC4)cc32)cc1
The “hERG current change (%, negative = inhibition) at 1uM” value of the first is lower: -1.44% for the first, 10.8% for the second.

First: CCC(C)c1ccccc1NC(=O)C(C)NCCN(C)C.O=C(O)C(=O)O (centres unmarked)
Second: Cc1cccc(Nc2ccncc2S(=O)(=O)NC(=O)NC(C)C)c1
The “hERG current change (%, negative = inhibition) at 1uM” value of the first is higher: 15.9% for the first, 10% for the second.

First: N#CCC(=O)N/N=C/c1cc([N+](=O)[O-])ccc1N1CCCC1
Second: CN1CCN(/N=C/c2ccc(-c3ccc([N+](=O)[O-])cc3Cl)o2)CC1
The “hERG current change (%, negative = inhibition) at 1uM” value of the first is higher: 5.24% for the first, -9.76% for the second.

Compared with `CCOC(=O)c1c(NC(=O)CN2CCOCC2)sc2c1CC(C)(C)OC2`, `O=C(NCC(c1ccco1)N1CCOCC1)c1ccc(F)cc1` (centres unmarked) is lower in “hERG current change (%, negative = inhibition) at 1uM” value: 11.7% for the first, 5.48% for the second.

Going from `CN(Cc1cnccn1)Cc1nc(Cc2ccccc2Cl)no1` to `CCOC(=O)C1(CCc2ccccc2)CCN(Cc2cccc3c2OCO3)CC1`, the “hERG current change (%, negative = inhibition) at 1uM” value falls from 9.75% to -63.7%.

First: Cc1cccc(NC(=O)CSCC(=O)N2CCCc3ccccc32)c1
Second: Cc1ccccc1N1CCN(C2=NC(=O)/C(=C\c3cccs3)S2)CC1
The “hERG current change (%, negative = inhibition) at 1uM” value of the first is lower: 6.82% for the first, 9.44% for the second.

First: CCCCN(C(=O)CSc1nn(-c2ccc(F)cc2)c(=S)s1)c1c(N)n(CCCC)c(=O)[nH]c1=O
Second: CCOC(=O)[C@H]1[C@H]2COc3ccc(OC)cc3[C@@H]2N2C(=O)c3ccccc3NC(=O)[C@@]12C
The “hERG current change (%, negative = inhibition) at 1uM” value of the first is higher: 8.15% for the first, 6.02% for the second.

Compared with `CCOc1ccccc1OCC(=O)NNC(=S)NC1CCCCC1`, `CC(C)Cc1nnc(NC(=O)CCC(=O)NC2CCCCCC2)s1` is lower in “hERG current change (%, negative = inhibition) at 1uM” value: 2.31% for the first, -14.3% for the second.

Going from `CC1(C)N(O)CC(c2cccs2)=[N+]1[O-]` to `NNC(=O)c1cc2sccc2s1`, the “hERG current change (%, negative = inhibition) at 1uM” value rises from 12.9% to 14%.

Going from `O=C(NC1CC2CCCC(C1)N2Cc1ccccc1)c1cccc(Cl)c1` (centres unmarked) to `CC(NC(=O)c1cccc(F)c1)C1CC2CCC1C2` (centres unmarked), the “hERG current change (%, negative = inhibition) at 1uM” value rises from -12.1% to 13.7%.

First: O=c1c(-c2ccc(O)cc2)coc2cc(OC3OC(CO)C(O)C(O)C3O)cc(O)c12 (centres unmarked)
Second: C=CCN1C(=O)C2C(C(=O)NC)C3(C)C=CC2(O3)C1C(=O)NCc1ccc(OC)cc1 (centres unmarked)
The “hERG current change (%, negative = inhibition) at 1uM” value of the first is lower: 7.24% for the first, 9.93% for the second.
